This passage reports binding signal results from publication PMC7819943, “Rice protein-binding microarrays: a tool to detect cis-acting elements near promoter regions in rice”.

The list shows a part of the results.

The assay concerns the target T1, OsWOX13 (Oryza sativa, UniProt Q5QMM3 1-267).
T1 sequence: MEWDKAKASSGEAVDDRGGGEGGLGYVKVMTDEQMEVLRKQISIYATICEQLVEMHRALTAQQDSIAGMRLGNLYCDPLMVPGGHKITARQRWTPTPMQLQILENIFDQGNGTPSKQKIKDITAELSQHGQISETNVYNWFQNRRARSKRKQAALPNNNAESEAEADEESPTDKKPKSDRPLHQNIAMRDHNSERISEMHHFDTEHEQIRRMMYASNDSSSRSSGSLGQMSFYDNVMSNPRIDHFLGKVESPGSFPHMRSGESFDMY
Kind of assay: protein-binding microarray (RPBM); PBS, 2% BSA, 51.3 ng/ul salmon testes DNA, 50 uM zinc acetate, 200 nM TF, 25 C, 1 h; high values mean tight binding. As to conditions: protein: recombinant; tags: N-terminal polyhistidine and DsRed monomer fusion (pET32a); label: CyDye5-dUTP incorporated in the synthesized complementary strand; 3' TTTTT single-stranded linker to array surface; dsDNA, one strand shown. Summed up:
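Binding signal here means per-feature fluorescence intensity in arbitrary units. The values were read on an Axon 4000B scanner after a custom Agilent array, double-stranded by primer extension with Cy5-dUTP, was incubated with 200 nM protein at 25 °C for 1 h in PBS with 2% BSA, salmon testes DNA and 50 µM zinc acetate, then washed. The proteins were transcription factors with an N-terminal polyhistidine tag and DsRed, expressed in E. coli BL21-CodonPlus and purified on Ni–NTA.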
Consider “AAAACTAATTATACAGATTACATGTAAATTGCGAGACGAACGGAGTCACCTAGTGCAG”, for which the binding signal is 18300 fluorescence intensity (a.u.).

On to “GCTTAATTAACAATCAACATAACTACTAACTAGTGTTGTTCGGAGTCACCTAGTGCAG”, for which the binding signal is 57300 fluorescence intensity (a.u.). As for “ACATTTATATTGATGATAAAATTTTATCTAGATTCTAAATCGGAGTCACCTAGTGCAG”, the binding signal is 7600 fluorescence intensity (a.u.). Then “AAAGTGACTGTAGATGATGTATTAATTTTGAAAGGTAGCACGGAGTCACCTAGTGCAG”, with 11700 fluorescence intensity (a.u.); and “TATGACTATCAATCTGTAAGAAGATGGACAACCCTCAATACGGAGTCACCTAGTGCAG”, with 12000 fluorescence intensity (a.u.); and “ATAACAAAATAAATTACAGATTTCGTCTGTAAACGAAACGCGGAGTCACCTAGTGCAG”, with 12700 fluorescence intensity (a.u.). Consider “AGTAATTGTCACCATACAAACACCCAGCACAACAATTTTACGGAGTCACCTAGTGCAG”, for which the binding signal was 5040 fluorescence intensity (a.u.).

Take “CTTAAAATAATTTATCTTTGACCAAAGTCAAAACGTCTTACGGAGTCACCTAGTGCAG”: the binding signal is 10600 fluorescence intensity (a.u.). The figure for “AATAATTTTGCAAATAAATGATTAGATGATTCCCCACTTTCGGAGTCACCTAGTGCAG” is 12800 fluorescence intensity (a.u.); for “CACACATTTGATATGATTTTGTAATGTCAATTCAAGATGACGGAGTCACCTAGTGCAG” it is 4920 fluorescence intensity (a.u.). The figure for “AAACTATTCCTAATTAATAGATAACTTGCCATGCCGCATTCGGAGTCACCTAGTGCAG” is 12800 fluorescence intensity (a.u.). The figure for “GTAATACTAAATAATTAGTAATTGACTAGTTCCTGTCGGTCGGAGTCACCTAGTGCAG” is 29700 fluorescence intensity (a.u.); for “TATAATTATATGTAGCTATGAAACTTTAGATGTATCGGGACGGAGTCACCTAGTGCAG” it is 20700 fluorescence intensity (a.u.); for “TGATGTGATTTAAATTTAATAGTATATAGAATGATTATTCCGGAGTCACCTAGTGCAG” it is 27100 fluorescence intensity (a.u.).

As to “TGCGAACTCGATTTCCAATCAAATGATCATCTGCCGCGGTCGGAGTCACCTAGTGCAG”, the binding signal was 6020 fluorescence intensity (a.u.).

For the sequence “TTTACCACTAACTACGCAATCAGTGCGGCCTGGCCCATCTCGGAGTCACCTAGTGCAG”, the binding signal was 4440 fluorescence intensity (a.u.).

Consider “CTCCATCATTCGATCTCAATCAAGCGATCGATCGTCCACACGGAGTCACCTAGTGCAG”, for which the binding signal was 10100 fluorescence intensity (a.u.). The figure for “TATAAACAACAGTAATTATAATTATATAATACTAATAGAGCGGAGTCACCTAGTGCAG” is 17400 fluorescence intensity (a.u.); for “ATAATTAATTACCTCGCGAACTGACCGTCAGGGAGCGAGACGGAGTCACCTAGTGCAG” it is 20100 fluorescence intensity (a.u.); for “AAGAGGCCCATCATAATTGATAAAGTCATCAGTATATAGTCGGAGTCACCTAGTGCAG” it is 11300 fluorescence intensity (a.u.). Then “TCTGCTTAAAAGGATGATTAAATTTTAGATTAAAGTGGCGCGGAGTCACCTAGTGCAG”, with 10200 fluorescence intensity (a.u.). With “CACGAAATTAATTTAGCTCTACATCCGTTCTGTTTATGAACGGAGTCACCTAGTGCAG”, the binding signal is 8960 fluorescence intensity (a.u.). Turning to “ACCCTTTGATTACGCTATCATTACTGACAATGACATGTGGCGGAGTCACCTAGTGCAG”, the binding signal is 31600 fluorescence intensity (a.u.). Then “ACGACTAATTATTATCTCAATGGAGAATGATGTATATGTTCGGAGTCACCTAGTGCAG”, with 27800 fluorescence intensity (a.u.); and “GTTCAGGAATTGATGCGGAATGAAGATTATGTGCTCCTGCCGGAGTCACCTAGTGCAG”, with 3620 fluorescence intensity (a.u.). The figure for “TTTGATAGAACTGGTGTCATGTGCAATTCTCCTTTTCTCCCGGAGTCACCTAGTGCAG” is 11200 fluorescence intensity (a.u.). The figure for “TACAAATTTGAATCTGATTGAAATTCGCCAAATTGAAACCCGGAGTCACCTAGTGCAG” is 45800 fluorescence intensity (a.u.). As for “TCCGTACTCGTAATGACAATATTTAATTTAAACCTTCGGACGGAGTCACCTAGTGCAG”, the binding signal was 3170 fluorescence intensity (a.u.).

For the sequence “AGGTGTTTAATTGGGTTTCTGGGTCCAAAACTCCATAAGTCGGAGTCACCTAGTGCAG”, the binding signal was 8570 fluorescence intensity (a.u.). On to “TCACATGCATAATTAGAATAATTGAAAGGCCACAGATGGCCGGAGTCACCTAGTGCAG”, for which the binding signal was 27000 fluorescence intensity (a.u.). In the case of “AATATCTAATTAGCTTTGAGGGCACTTAGCTCTGCAGTTCCGGAGTCACCTAGTGCAG”, the binding signal is 12100 fluorescence intensity (a.u.). As to “TTCACATTATTTCAATTTCAATCAAACTTTCGATTTTAGCCGGAGTCACCTAGTGCAG”, the binding signal was 9030 fluorescence intensity (a.u.).

As to “TTAGTTTATACTCAATTAATCATTCGCTAATGGCTTACCTCGGAGTCACCTAGTGCAG”, the binding signal is 5920 fluorescence intensity (a.u.). Then “GTTTGACTTGTTACTGTATAAATTGTAGAATTTCGTCGCACGGAGTCACCTAGTGCAG”, with 4340 fluorescence intensity (a.u.); and “GTAAAATAATTGGAAGAGCCAGAGTTAGTTGTGCACATGCCGGAGTCACCTAGTGCAG”, with 21800 fluorescence intensity (a.u.). Take “GAGAGGAGGGATTGATTTTCTTTCTCCTCCTCTTCTTGTTCGGAGTCACCTAGTGCAG”: the binding signal was 4490 fluorescence intensity (a.u.). The figure for “TAGTTAATCTACGGGACGTGACTGGCTGCTGCCTGGCAGACGGAGTCACCTAGTGCAG” is 6620 fluorescence intensity (a.u.). With “TTAAATTAAAACTGAAATTACAGTCCTTCTTAACCTTCTCCGGAGTCACCTAGTGCAG”, the binding signal was 11600 fluorescence intensity (a.u.).

Take “AACCCCATAATCTGAAAATAGATAGAATATATGGCTCTGACGGAGTCACCTAGTGCAG”: the binding signal was 3570 fluorescence intensity (a.u.). Then “ATCTATCTATCTATCTATCTATCTATCTATCTATCTATCTCGGAGTCACCTAGTGCAG”, with 20600 fluorescence intensity (a.u.).

Turning to “CCATTATCCATTTCATCTAATTATTTGGACTGCAGTTGCACGGAGTCACCTAGTGCAG”, the binding signal is 5320 fluorescence intensity (a.u.). With “AAATCCTCAATTAATTCTAAAATTAAGTTATTCCAATTCACGGAGTCACCTAGTGCAG”, the binding signal is 8850 fluorescence intensity (a.u.).

With “TATTTAATTTTGTCAAAGACCACACAATATTTTACAACAACGGAGTCACCTAGTGCAG”, the binding signal is 6810 fluorescence intensity (a.u.).

With “TTTGGAAATTATCTATGAATTTACCTAGTTTCATCGTCCACGGAGTCACCTAGTGCAG”, the binding signal is 4970 fluorescence intensity (a.u.). Regarding “CCTAACCACCCTCTGATTAACACTCACCTAGTGCCTAATTCGGAGTCACCTAGTGCAG”, the binding signal is 6890 fluorescence intensity (a.u.).

In the case of “GCATAATTAAGAACATATACTTTCCCAGCATGTTCTGTGACGGAGTCACCTAGTGCAG”, the binding signal is 14800 fluorescence intensity (a.u.). The figure for “TGGCATTTATCAATCACCATATTATAGTCCAGCACCAAAACGGAGTCACCTAGTGCAG” is 4840 fluorescence intensity (a.u.). As for “AATAGACTTAAATTGATAAATAATATTAGCTAAATTTGTACGGAGTCACCTAGTGCAG”, the binding signal was 28900 fluorescence intensity (a.u.). Then “TCACAAATTGCATTACCAGTGGTAGCTCCGGTGCCTTCTTCGGAGTCACCTAGTGCAG”, with 7610 fluorescence intensity (a.u.); and “GACCAATCAACGCAGCTCTCGTCTCCTCTGTTTATATAAACGGAGTCACCTAGTGCAG”, with 11200 fluorescence intensity (a.u.). For the sequence “AACTGCTGATTGTGATACACATGACCTGAACTCATTTTCTCGGAGTCACCTAGTGCAG”, the binding signal is 11500 fluorescence intensity (a.u.). Then “ATATATTTATTGATTAGAAACATCTATAGTCAGGGACCAACGGAGTCACCTAGTGCAG”, with 21200 fluorescence intensity (a.u.); and “GAAATGAATTGATCAAGGGCACGGTGGACCCGGCCCACGCCGGAGTCACCTAGTGCAG”, with 4980 fluorescence intensity (a.u.). Consider “ATTGCTAATTATGTGCAAGAGTGATGCTTGGGTTGGATAGCGGAGTCACCTAGTGCAG”, for which the binding signal is 12400 fluorescence intensity (a.u.).
